{"source": "a compilation of properties of binary mixtures (doi:10.1007/s10953-023-01246-7)", "test": "xn = mol fraction of the nth substance listed", "details": "100 kPa", "note": "Some of these densities may be calculated back from excess volumes."}
{"smiles": "CCOS(=O)(=O)[O-].CC[n+]1ccn(C)c1", "note": "+ OCCO", "values": [{"measurement": "mass density", "setting": "293.15 K, x1 = 0.1982", "value": 1165.7, "unit": "kg/m3"}, {"measurement": "mass density", "setting": "293.15 K, x1 = 0.4002", "value": 1195.7, "unit": "kg/m3"}, {"measurement": "mass density", "setting": "293.15 K, x1 = 0.5005", "value": 1206.5, "unit": "kg/m3"}, {"measurement": "mass density", "setting": "293.15 K, x1 = 0.5992", "value": 1215.5, "unit": "kg/m3"}, {"measurement": "mass density", "setting": "293.15 K, x1 = 0.6994", "value": 1223.1, "unit": "kg/m3"}, {"measurement": "mass density", "setting": "293.15 K, x1 = 0.8001", "value": 1229.7, "unit": "kg/m3"}, {"measurement": "mass density", "setting": "293.15 K, x1 = 0.8993", "value": 1237.5, "unit": "kg/m3"}, {"measurement": "mass density", "setting": "298.15 K, x1 = 0.1003", "value": 1141, "unit": "kg/m3"}, {"measurement": "mass density", "setting": "298.15 K, x1 = 0.1982", "value": 1162.1, "unit": "kg/m3"}, {"measurement": "mass density", "setting": "298.15 K, x1 = 0.2999", "value": 1178, "unit": "kg/m3"}, {"measurement": "mass density", "setting": "298.15 K, x1 = 0.4002", "value": 1192.1, "unit": "kg/m3"}, {"measurement": "mass density", "setting": "298.15 K, x1 = 0.5005", "value": 1203.1, "unit": "kg/m3"}, {"measurement": "mass density", "setting": "298.15 K, x1 = 0.5992", "value": 1212.1, "unit": "kg/m3"}, {"measurement": "mass density", "setting": "298.15 K, x1 = 0.6994", "value": 1219.6, "unit": "kg/m3"}, {"measurement": "mass density", "setting": "298.15 K, x1 = 0.8001", "value": 1226.2, "unit": "kg/m3"}, {"measurement": "mass density", "setting": "298.15 K, x1 = 0.8993", "value": 1234, "unit": "kg/m3"}, {"measurement": "mass density", "setting": "303.15 K, x1 = 0.1003", "value": 1137.5, "unit": "kg/m3"}, {"measurement": "mass density", "setting": "303.15 K, x1 = 0.1982", "value": 1158.6, "unit": "kg/m3"}, {"measurement": "mass density", "setting": "303.15 K, x1 = 0.2999", "value": 1174.5, "unit": "kg/m3"}, {"measurement": "mass density", "setting": "303.15 K, x1 = 0.4002", "value": 1188.6, "unit": "kg/m3"}, {"measurement": "mass density", "setting": "303.15 K, x1 = 0.5005", "value": 1199.6, "unit": "kg/m3"}, {"measurement": "mass density", "setting": "303.15 K, x1 = 0.8001", "value": 1222.8, "unit": "kg/m3"}, {"measurement": "mass density", "setting": "303.15 K, x1 = 0.8993", "value": 1230.6, "unit": "kg/m3"}, {"measurement": "mass density", "setting": "308.15 K, x1 = 0.1003", "value": 1133.9, "unit": "kg/m3"}, {"measurement": "mass density", "setting": "308.15 K, x1 = 0.4002", "value": 1185.1, "unit": "kg/m3"}, {"measurement": "mass density", "setting": "308.15 K, x1 = 0.5005", "value": 1196.1, "unit": "kg/m3"}, {"measurement": "mass density", "setting": "308.15 K, x1 = 0.5992", "value": 1205.2, "unit": "kg/m3"}, {"measurement": "mass density", "setting": "308.15 K, x1 = 0.6994", "value": 1212.8, "unit": "kg/m3"}, {"measurement": "mass density", "setting": "308.15 K, x1 = 0.8001", "value": 1219.4, "unit": "kg/m3"}, {"measurement": "mass density", "setting": "308.15 K, x1 = 0.8993", "value": 1227.2, "unit": "kg/m3"}, {"measurement": "mass density", "setting": "313.15 K, x1 = 0.1003", "value": 1130.4, "unit": "kg/m3"}, {"measurement": "mass density", "setting": "313.15 K, x1 = 0.2999", "value": 1167.5, "unit": "kg/m3"}, {"measurement": "mass density", "setting": "313.15 K, x1 = 0.4002", "value": 1181.6, "unit": "kg/m3"}, {"measurement": "mass density", "setting": "313.15 K, x1 = 0.5005", "value": 1192.6, "unit": "kg/m3"}, {"measurement": "mass density", "setting": "313.15 K, x1 = 0.5992", "value": 1201.7, "unit": "kg/m3"}, {"measurement": "mass density", "setting": "313.15 K, x1 = 0.6994", "value": 1209.4, "unit": "kg/m3"}, {"measurement": "mass density", "setting": "313.15 K, x1 = 0.8001", "value": 1216, "unit": "kg/m3"}, {"measurement": "mass density", "setting": "313.15 K, x1 = 0.8993", "value": 1223.8, "unit": "kg/m3"}, {"measurement": "mass density", "setting": "318.15 K, x1 = 0.1003", "value": 1126.9, "unit": "kg/m3"}, {"measurement": "mass density", "setting": "318.15 K, x1 = 0.2999", "value": 1164, "unit": "kg/m3"}, {"measurement": "mass density", "setting": "318.15 K, x1 = 0.5005", "value": 1189.2, "unit": "kg/m3"}, {"measurement": "mass density", "setting": "318.15 K, x1 = 0.5992", "value": 1198.3, "unit": "kg/m3"}, {"measurement": "mass density", "setting": "318.15 K, x1 = 0.6994", "value": 1206, "unit": "kg/m3"}, {"measurement": "mass density", "setting": "323.15 K, x1 = 0.1982", "value": 1144.4, "unit": "kg/m3"}, {"measurement": "mass density", "setting": "323.15 K, x1 = 0.2999", "value": 1160.5, "unit": "kg/m3"}, {"measurement": "mass density", "setting": "323.15 K, x1 = 0.4002", "value": 1174.7, "unit": "kg/m3"}, {"measurement": "mass density", "setting": "323.15 K, x1 = 0.5005", "value": 1185.8, "unit": "kg/m3"}, {"measurement": "mass density", "setting": "323.15 K, x1 = 0.5992", "value": 1194.9, "unit": "kg/m3"}, {"measurement": "mass density", "setting": "323.15 K, x1 = 0.6994", "value": 1202.6, "unit": "kg/m3"}, {"measurement": "mass density", "setting": "323.15 K, x1 = 0.8001", "value": 1209.3, "unit": "kg/m3"}, {"measurement": "mass density", "setting": "323.15 K, x1 = 0.8993", "value": 1217, "unit": "kg/m3"}, {"measurement": "mass density", "setting": "328.15 K, x1 = 0.1003", "value": 1119.7, "unit": "kg/m3"}, {"measurement": "mass density", "setting": "328.15 K, x1 = 0.1982", "value": 1140.9, "unit": "kg/m3"}, {"measurement": "mass density", "setting": "328.15 K, x1 = 0.2999", "value": 1157, "unit": "kg/m3"}, {"measurement": "mass density", "setting": "328.15 K, x1 = 0.4002", "value": 1171.3, "unit": "kg/m3"}, {"measurement": "mass density", "setting": "328.15 K, x1 = 0.5005", "value": 1182.4, "unit": "kg/m3"}, {"measurement": "mass density", "setting": "328.15 K, x1 = 0.5992", "value": 1191.6, "unit": "kg/m3"}, {"measurement": "mass density", "setting": "328.15 K, x1 = 0.6994", "value": 1199.2, "unit": "kg/m3"}, {"measurement": "mass density", "setting": "328.15 K, x1 = 0.8001", "value": 1205.9, "unit": "kg/m3"}, {"measurement": "mass density", "setting": "328.15 K, x1 = 0.8993", "value": 1213.7, "unit": "kg/m3"}, {"measurement": "mass density", "setting": "333.15 K, x1 = 0.2999", "value": 1153.5, "unit": "kg/m3"}, {"measurement": "mass density", "setting": "333.15 K, x1 = 0.4002", "value": 1167.9, "unit": "kg/m3"}, {"measurement": "mass density", "setting": "333.15 K, x1 = 0.5992", "value": 1188.2, "unit": "kg/m3"}, {"measurement": "mass density", "setting": "333.15 K, x1 = 0.6994", "value": 1195.8, "unit": "kg/m3"}, {"measurement": "mass density", "setting": "333.15 K, x1 = 0.8001", "value": 1202.6, "unit": "kg/m3"}, {"measurement": "mass density", "setting": "333.15 K, x1 = 0.8993", "value": 1210.4, "unit": "kg/m3"}, {"measurement": "mass density", "setting": "338.15 K, x1 = 0.1003", "value": 1112.5, "unit": "kg/m3"}, {"measurement": "mass density", "setting": "338.15 K, x1 = 0.1982", "value": 1133.8, "unit": "kg/m3"}, {"measurement": "mass density", "setting": "338.15 K, x1 = 0.2999", "value": 1150, "unit": "kg/m3"}, {"measurement": "mass density", "setting": "338.15 K, x1 = 0.4002", "value": 1164.4, "unit": "kg/m3"}, {"measurement": "mass density", "setting": "338.15 K, x1 = 0.5005", "value": 1175.6, "unit": "kg/m3"}, {"measurement": "mass density", "setting": "338.15 K, x1 = 0.6994", "value": 1192.5, "unit": "kg/m3"}, {"measurement": "mass density", "setting": "338.15 K, x1 = 0.8001", "value": 1199.2, "unit": "kg/m3"}, {"measurement": "mass density", "setting": "338.15 K, x1 = 0.8993", "value": 1207.1, "unit": "kg/m3"}, {"measurement": "mass density", "setting": "343.15 K, x1 = 0.1003", "value": 1109, "unit": "kg/m3"}, {"measurement": "mass density", "setting": "343.15 K, x1 = 0.1982", "value": 1130.3, "unit": "kg/m3"}, {"measurement": "mass density", "setting": "343.15 K, x1 = 0.2999", "value": 1146.5, "unit": "kg/m3"}, {"measurement": "mass density", "setting": "343.15 K, x1 = 0.4002", "value": 1161, "unit": "kg/m3"}, {"measurement": "mass density", "setting": "343.15 K, x1 = 0.6994", "value": 1189.2, "unit": "kg/m3"}, {"measurement": "mass density", "setting": "343.15 K, x1 = 0.8993", "value": 1203.8, "unit": "kg/m3"}]}
